# Experimental data published in PubChem BioAssay AID488969 (Vanderbilt High Throughput Screening Facility, 2010).
# In all, about 110,000 compounds were measured (“z-score”: median about -0.1, highest 2% from about 2 on). The list shows a part of the results. The source made the active and inactive calls.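 The calls were made as follows: active = z-score in the third read window above 3 or below -3; inactive = the rest.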 Non-standard residues stand in square brackets, D forms with d. Residues, ends and D or L forms follow the SMILES beside them. ξ: configuration not given here. ξF = NC(Cc1ccccc1)C(=O)O
# Target: Metabotropic glutamate receptor 8 (Rattus norvegicus) (UniProt P70579)
# Experiment: rat mGluR8 modulators via GIRK flux, primary screen, cell-based, thallium flux, HTS (AID 488969)
# Conditions: HEK293 rat mGluR8, GIRK (G protein-gated inwardly rectifying potassium channel) thallium flux, FluoZin2; at 10 µM; stronger effect = higher value; submaximal glutamate (EC20) added with thallium
# UniProt P70579, sequence (P70579 whole entry, looked up): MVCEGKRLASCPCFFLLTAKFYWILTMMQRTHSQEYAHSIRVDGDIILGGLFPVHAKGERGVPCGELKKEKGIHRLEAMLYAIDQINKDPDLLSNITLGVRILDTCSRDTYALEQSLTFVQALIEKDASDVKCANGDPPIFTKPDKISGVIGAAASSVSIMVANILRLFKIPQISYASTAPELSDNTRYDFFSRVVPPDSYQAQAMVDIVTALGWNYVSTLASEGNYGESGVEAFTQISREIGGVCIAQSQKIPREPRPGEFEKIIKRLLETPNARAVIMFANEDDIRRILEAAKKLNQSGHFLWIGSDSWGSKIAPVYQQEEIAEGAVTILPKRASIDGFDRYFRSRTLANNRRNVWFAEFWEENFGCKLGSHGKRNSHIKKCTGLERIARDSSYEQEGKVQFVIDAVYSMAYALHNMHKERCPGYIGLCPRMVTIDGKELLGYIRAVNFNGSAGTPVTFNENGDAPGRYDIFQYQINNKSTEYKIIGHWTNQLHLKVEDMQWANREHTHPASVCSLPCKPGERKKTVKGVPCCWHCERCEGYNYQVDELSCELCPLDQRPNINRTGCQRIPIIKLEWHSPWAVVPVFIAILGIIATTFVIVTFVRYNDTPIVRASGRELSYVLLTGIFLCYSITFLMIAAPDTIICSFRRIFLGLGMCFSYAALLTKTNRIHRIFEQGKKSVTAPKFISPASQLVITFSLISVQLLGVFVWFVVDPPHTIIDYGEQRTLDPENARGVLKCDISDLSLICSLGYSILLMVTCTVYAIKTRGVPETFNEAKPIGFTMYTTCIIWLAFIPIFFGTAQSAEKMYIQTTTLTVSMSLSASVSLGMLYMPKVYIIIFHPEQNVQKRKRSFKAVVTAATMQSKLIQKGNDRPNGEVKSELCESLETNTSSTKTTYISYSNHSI
row,SMILES,z-score
1,CC(C)CCn1c(CN(C)Cc2ccccc2)nc2c1c(=O)n(C)c(=O)n2C,0.0888
2,CCOc1cc(C2NC(=O)N(C)C(C)=C2C(=O)OC)cc(Br)c1O (stereo unspecified),0.0727
3,Cc1cc2nc(SCCN3CCOCC3)[nH]c2cc1C,-0.235
4,CCOc1cc2c(cc1OC)C(NC(=O)C(F)(F)F)CC2=O (stereo unspecified),0.226
5,O=C(COC(=O)Cc1c(Cl)cccc1Cl)NCCC1=CCCCC1,-0.34
6,c1ccc2[nH]c(SCc3ccc(-c4nnco4)cc3)nc2c1,-0.713
7,Cc1cc(=O)[nH]c(COc2ccccc2)n1,0.172
8,c1ccc(-c2oc3ncnc(NCCN4CCOCC4)c3c2-c2ccccc2)cc1,-0.115
9,COc1ccc2c(-c3ccccc3)cc3nnnn3c2c1,-0.74
10,CCCCc1cc(=O)oc2cc(C)cc(OCc3nn[nH]n3)c12,-0.257
11,Cc1ccc(Oc2ncccc2/C=N/OCc2ccc(Cl)cc2Cl)cc1,0.00198
12,Cc1cc(OCCn2ccnc2)cc(C(C)C)c1,-0.207
13,Cc1ccc(Cl)cc1OCC(=O)NCCOC(=O)Nc1sc(=S)n(C)c1C,-0.181
14,CCOC(=O)c1c(NC(C)=O)sc2c(O)c(Br)ccc12,-1.3
15,CCN(CC)S(=O)(=O)c1cc(C(=O)Nc2ccccc2C(=O)O)ccc1OC,-1.44
16,CCn1cc(C(=O)O)c(=O)c2cc(S(=O)(=O)N(C)C)ccc21,-0.105
17,CCC1CCc2c(c3ccccc3[nH]c2=O)O1 (stereo unspecified),0.227
18,CN(CC(=O)NCc1ccc2c(c1)OCO2)S(=O)(=O)c1ccc(Br)s1,-0.0602
19,Cc1n[nH]c(=O)nc1N/N=C/c1ccc(O)c([N+](=O)[O-])c1,-0.137
20,Cc1ccc(-n2c3nc(=O)[nH]c(=O)c-3cc3cc([N+](=O)[O-])ccc32)cc1C,-1.35
21,COc1ccc(N2CCN(CC(=O)Nc3ccc(SC(F)F)cc3)CC2)cc1,-0.669
22,COCCn1c(C)cc(C(=O)CSc2nnc3scc(-c4ccc(Cl)cc4)n23)c1C,-0.12
23,COc1ccccc1CNC(=O)C1CCN(S(C)(=O)=O)CC1,0.0756

row,SMILES,z-score
1,O=C(CC1Oc2ccc(Cl)cc2NC1=O)NC1CCCCCC1 (stereo unspecified),-0.428
2,Cc1ccc(-c2nnc(OCCN3CCOCC3)c3ccccc23)cc1,-0.664
3,Cc1nnc(OCC(=O)NCCC2=CCCCC2)c2ccccc12,0.283
4,O=C(OC(c1ccccc1)c1nccc2ccccc12)c1cc([N+](=O)[O-])cc([N+](=O)[O-])c1 (stereo unspecified),-0.259
5,O/N=C/c1ccc(OCc2ccccc2)c(Br)c1,0.388
6,CC(C)Oc1ccc(/C(O)=C2/C(=O)C(=O)N(CCN3CCOCC3)C2c2ccccc2)cc1 (stereo unspecified),0.227
7,O=C(COC(=O)CC(c1ccccc1)c1ccccc1)NCc1ccc(Cl)cc1,-0.0225
8,Cc1cc2cc(C)c3nnc(SCC(=O)Nc4ccc(S(=O)(=O)N5CCCCC5)cc4)n3c2cc1C,0.128
9,O=C(CSc1nnc(Cc2cc(=O)[nH]c(=O)[nH]2)n1-c1ccc(Cl)cc1)NC1CCCC1,-0.0944
10,CCCCn1nnnc1SCC(=O)NCc1ccco1,-0.109
11,O=C(/C=C/c1ccc2c(c1)OCO2)Nc1nc(-c2ccc(F)cc2)cs1,-0.18
12,CCO/C=C1/C(=O)N(CC)c2ccccc21,0.859
13,CCOc1ccc(C2C(C#N)=C(N)Oc3cc(C)n(Cc4ccco4)c(=O)c32)cc1OC (stereo unspecified),-0.0285
14,CS(=O)(=O)N(CC(=O)NC1CCCCCC1)Cc1ccccc1,0.041
15,Clc1ccc(CON/C=N/c2ncnc3sccc23)cc1,-0.0162
16,O=c1c2ccccc2nc(/C=C/c2ccc(O)cc2)n1CCc1ccccc1,-0.0886
17,COc1c(S(=O)(=O)NCCN2CCOCC2)ccc(Cl)c1Cl,0.459
18,O=[N+]([O-])c1ccc(CSc2nnc(SCc3ccccc3)s2)cc1,0.0918
19,Cc1cccc(/C=N/Nc2cc(N3CCOCC3)nc(N3CCOCC3)n2)c1,-0.44
20,CCOc1ccc(C2C(C(=O)Nc3ccc(F)cc3)=C(C)Nc3nc(CCCO)nn32)cc1 (stereo unspecified),0.0171
21,O=C(Nc1ccccc1)c1ccccc1OCc1cccc([N+](=O)[O-])c1,-0.111
22,CC(C)(C)NC(=S)NC(=O)C12CC3CCC(CC(C3)C1)C2,-0.239
23,O=C(c1cc2nc(-c3ccco3)cc(C(F)(F)F)n2n1)N1CCN(Cc2ccccc2)CC1,-0.1

row,SMILES,z-score
1,O=C(O)CSc1nnc(CNc2ccccc2Cl)n1-c1ccccc1,-0.237
2,O=C(Cc1ccc(Cl)cc1)Nc1ccccc1N1CCOCC1,-0.153
3,O=C(Nc1nnc(-c2ccc3c(c2)CCCC3)o1)c1ccc(Cl)cc1Cl,active: 15.6
4,O=C(Cn1nnc2ccccc2c1=O)NCc1ccco1,0.114
5,Cc1cn(C(=O)C(C)N2C(=O)c3ccccc3C2=O)c(C)n1 (stereo unspecified),-0.605
6,CCN(CC)C(=O)CSc1nnc(CNc2ccc(F)cc2)n1Cc1ccco1,-0.092
7,O=C(CNC(=O)/C(=C/c1ccccc1)NC(=O)c1ccc(Br)cc1)OCc1ccccc1,-0.0265
8,CC1=NN(C(=O)c2ccc(Br)cc2)C(O)(C(F)(F)OC(F)(F)F)C1 (stereo unspecified),-0.31
9,COc1ccc(Cn2c(N)c(C#N)c3nc4ccccc4nc32)cc1,-0.182
10,CC(=O)Nc1ccc(S(=O)(=O)NC(C)C(=O)OCC(=O)NC2CCCC2)cc1 (stereo unspecified),-0.107
11,CCC(CC)C(=O)OCC(=O)NC12CC3CC(CC(C3)C1)C2,-0.0127
12,COc1ccc(OCc2n[nH]c(=S)o2)cc1,-0.0823
13,COCCCNC(=O)CCc1nc2cccnc2n1Cc1ccc(OC)cc1,-0.209
14,O=C(N/N=C/c1ccncc1)c1cccc(NC(=O)c2ccc(Cl)cc2)c1,-0.428
15,Cc1[nH]c2ccccc2c1C(O)CN1CCN(c2cccc(C(F)(F)F)c2)CC1 (stereo unspecified),0.495
16,O=C(O)C1C2C=CC(C2)C1C(=O)N1CCc2ccccc21 (stereo unspecified),-0.42
17,C/C(CCc1oc2ccc(Cl)cc2c1-c1ccc(C)o1)=N\O,1.93
18,CCOc1ccc(-n2c(=S)sc3c(=O)[nH]c(SCC(=O)NC(C)CC)nc32)cc1 (stereo unspecified),-0.859
19,CCOC(=O)c1nc(Nc2ccc(C)cc2)c2ccccc2n1,-1.02
20,CCn1ncc(C2C(C(=O)Nc3ccc(C)cn3)=C(C)NC3=C2C(=O)CCC3)c1C (stereo unspecified),-0.378
21,CCC/C(=N/Nc1ccc(Cl)cc1)c1cnnc(-c2ccccc2)n1,-0.578
22,Cc1ccc(S(=O)(=O)c2nc(NCCN(C)C)sc2Cl)cc1,1.67
23,CSc1nc2ccccc2n1CC(=O)Nc1ccccc1,1.51

row,SMILES,z-score
1,Cc1nn(-c2ccccc2)c(Cl)c1C1C(C#N)=C(N)OC2=C1C(=O)CC(C)(C)C2 (stereo unspecified),-0.29
2,O=c1c2ccccc2nnn1CSc1nc2ccccc2[nH]1,0.194
3,CN(CC(=O)Nc1ccc(S(=O)(=O)N2CCCC2)cc1)Cc1cccc(Cl)c1Cl,-0.0422
4,COc1ccc(NC(=O)CSc2nnc(-c3cccnc3)o2)cc1,0.845
5,O=C(CN(Cc1ccccc1)S(=O)(=O)c1ccc2c(c1)OCCO2)Nc1ccc2c(c1)OCCO2,-0.803
6,CCCOC(=O)c1ccc2c(c1)C(=O)N(c1ccccc1)C2=O,-0.411
7,O=C(Nc1cccc(F)c1)c1cccc(S(=O)(=O)N2CCOCC2)c1,1.54
8,CCOc1ccccc1N1CCN(C(=O)c2c(C)noc2C)CC1,0.356
9,CCCCCCNC(=O)C(C(=O)OCC)C1CCCCC1 (stereo unspecified),0.494
10,CCOc1cc(C(C#N)N2CCOCC2)ccc1OC (stereo unspecified),1.21
11,COc1cccc(/C=N/c2oc(-c3ccccc3)cc2C#N)c1O,-0.279
12,Cc1c(Br)c([N+](=O)[O-])nn1C(C)C(=O)NCc1cccs1 (stereo unspecified),-0.152
13,Cc1[nH]n(-c2ccc([N+](=O)[O-])cc2)c(=O)c1C=NCCc1c(C)[nH]c2ccccc12,-0.0759
14,CCOc1ccc(C(=O)NCc2cccs2)cc1,0.445
15,CCCc1cc(-c2nc(-c3ccc(C)cc3)cs2)ccn1,0.113
16,CC(C)C(=O)Nc1ccc(-c2csc(-c3ccccc3)n2)cc1,-0.165
17,Cc1ccc(N2CC(C(=O)Nc3nccs3)CC2=O)cc1Cl (stereo unspecified),-0.934
18,CCC1(C)C2(C#N)C(N)=NC(OC)(OC)C12C#N (stereo unspecified),-0.0981
19,Cn1c(SCC(=O)N2CCOCC2)nnc1-c1ccccc1,-0.153
20,Cc1ccc2c(c1)C=CC(C)N2C(=O)c1ccccc1 (stereo unspecified),-0.877
21,Cc1c(N=Cc2ccccn2)c(=O)n(-c2ccccc2)n1C,-0.342
22,Cc1oc(=O)c(NC(=O)c2ccccc2)cc1C(=O)c1ccccc1,-0.469
23,CC(C(=O)Nc1ccccc1-c1ccccc1)N1CCOCC1 (stereo unspecified),-0.125

row,SMILES,z-score
1,CC(=O)NCC(=O)NC(Cc1ccccc1)C(N)=O (stereo unspecified) (Ac-Gly-[ξF]-NH2),-0.919
2,Cc1cc(C)n(-c2nc3c(c(=O)[nH]c(=O)n3C)n2Cc2ccc(F)cc2)n1,0.0308
3,CCCN1C(=O)c2ccccc2NC1c1cc(OC)c(OC)c(OC)c1 (stereo unspecified),0.194
4,CCCCOCCCNC(=O)Cc1cccs1,-1.05
5,CC(=O)Nc1ccc(C(=O)NC2CCCC2)cc1,-0.0856
6,CCn1c2ccccc2c2nnc(NN)nc21,-0.81
7,CN(C)C(=O)CCCc1nc(-c2ccc(Cl)cc2)no1,-0.0842
8,COc1ccc(-n2c(Cc3cccn3C)nnc2SCC(=O)NCCc2ccccc2)cc1,-0.482
9,Cc1ccccc1-n1c(C)nnc1SCc1cc(=O)oc2ccc3ccccc3c12,0.0722
10,O=C(Cc1ccccc1)NN1C(=O)C2C(C1=O)C1C=CC2C12CC2 (stereo unspecified),-0.165
11,O=C(NC1C2CC3CC(C2)CC1C3)C1CC1 (stereo unspecified),0.767
12,CCOC(=O)N1CCC(NC(=O)c2cc3ccccn3n2)CC1,-0.177
13,CCC(C(=O)N1CCc2cc(OC)c(OC)cc2C1)c1ccccc1 (stereo unspecified),-0.523
14,O=C(c1cccc(Br)c1)c1cn(-c2ccccc2)nc1C(=O)c1ccccc1,-0.106
15,Cc1ccc(C(=O)N2CCCC2)cc1S(=O)(=O)Nc1ccccc1,-0.144
16,CCOc1ccc(Cc2c(Cl)nc(SC)nc2OC)cc1,-0.264
17,C=CCNC(=O)c1onc(CSc2cccc(OCC)c2)c1C(=O)O,-0.301
18,Nc1nc(NCCO)nc(NCC2CCCO2)c1[N+](=O)[O-] (stereo unspecified),-0.192
19,O=C(NCc1ccccc1)C1(c2ccccc2)CCN(S(=O)(=O)c2ccccc2)CC1,-0.383
